Laboratory results published in the supplement of paper PMC9433436.
± gives the standard deviation of the averaged measurements. The full ranking holds about 4,100 sequences; the median of “relative kcat/Km (krel) vs genomic leader AAAGAU” is about 1.7, and the highest 2% start at about 6.5. This is a selection; strong and weak results do not stand in their true shares.

Target: T1, E. coli RNase P holoenzyme (M1 P RNA + rnpA protein) (UniProt P0A7Y8)
T1 sequence: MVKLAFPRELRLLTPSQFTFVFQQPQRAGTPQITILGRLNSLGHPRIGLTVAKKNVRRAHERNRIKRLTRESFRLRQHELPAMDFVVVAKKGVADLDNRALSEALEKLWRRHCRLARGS
Assay: relative kcat/Km (krel) vs genomic leader AAAGAU (relative (reference leader = 1)); higher = faster RNase P cleavage
Description: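 HTS-Kin: a pool of ptRNA-Met (21C construct) with all 4096 combinations of 5' leader nucleotides N(-6) to N(-1) was processed in vitro by E. coli RNase P (P RNA + rnpA/C5 protein) under multiple-turnover conditions at 37 C, pH 8, 17.5 mM MgCl2. Residual substrate was Illumina-sequenced at several fractions reacted, and relative kcat/Km (krel) was computed by internal competition kinetics, calibrated to the genomic leader (AAAGAU = 1). The listed hexamer is the varied N(-6)..N(-1) leader (DNA letters), and it sits between a fixed 5' stem-loop flank (GCAUGCACGAAAGUGCGUGCUAUGAA) and the mature tRNA-Met starting GGCUACGUAGCUCAGUUGG. Two technical replicates are averaged.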

[1] = fraction of substrate reacted: ~9-10% (9.79% repeat 1, 9.1% repeat 2)
[2] = fraction of substrate reacted: ~13-16% (15.68% repeat 1, 13.17% repeat 2)
[3] = fraction of substrate reacted: ~26-29% (28.66% repeat 1, 26.4% repeat 2)

Sequence | relative kcat/Km [1] | relative kcat/Km [2] | relative kcat/Km [3]
TCGGCT | 0.836 ± 0.18 | 0.478 ± 0.28 | 
TGTAAC | 2.99 ± 1.7 | 3.99 ± 0.054 | 5.88 ± 2.4
GAGATC | 1.8 ± 0.46 | 1.44 ± 0.09 | 2.21 ± 0.99
ATGCAC | 1.66 ± 0.36 | 1.07 ± 0.31 | 2.04 ± 0.13
AGGCTC |  |  | 0.722 ± 0.43
TCTACA | 1.43 ± 0.68 | 1.87 ± 0.44 | 2.46 ± 1.1
CGTACA | 1.34 ± 0.39 | 1.26 ± 0.3 | 2.36 ± 0.56
AACGCA | 2.99 ± 1.6 | 3.18 ± 0.58 | 4.32 ± 1.4
ACATCT | 2.62 ± 1.1 | 3.25 ± 0.78 | 4.12 ± 1.9
GACGAG |  | 1.49 ± 0.19 | 3.3 ± 0.29
GCTGCT | 0.72 ± 0.62 |  | 0.621 ± 0.4
TCCGGC | 0.889 ± 0.37 |  | 1.66 ± 0.94
AGCCCA | 1.18 ± 0.31 | 1.51 ± 1.4 | 1.81 ± 0.95
ACTATT | 2.31 ± 1.3 | 2.08 ± 0.34 | 2.89 ± 1.1
AGTATA | 2.41 ± 0.73 | 2.99 ± 0.27 | 4.7 ± 2
AGTGTT | 0.435 ± 0.024 |  | 1.34 ± 0.99
AGGTCA |  | 1.42 ± 0.46 | 1.25 ± 0.43

Sequence | relative kcat/Km [1] | relative kcat/Km [2] | relative kcat/Km [3]
GCGCGG | 0.556 ± 0.25 |  | 0.393 ± 0.23
GTAATT | 1.67 ± 1.2 | 2.308 ± 0.0035 | 2.96 ± 0.9
TAATTG |  |  | 1.08 ± 0.47
ACAGCG |  |  | 1.17 ± 0.16
GCCTAG | 2.58 ± 1.6 | 1.57 ± 0.49 | 3.67 ± 1.2
CCGTTA | 2.09 ± 0.35 | 2.33 ± 0.74 | 2.95 ± 0.62
AGAAAA | 3.05 ± 0.94 | 2.65 ± 0.37 | 3.92 ± 1.1
ACCCCC | 2.28 ± 0.72 | 1.22 ± 0.62 | 3.15 ± 1.3
CGCGTA | 2.07 ± 0.78 | 1.48 ± 0.56 | 2.18 ± 0.99
CTATCC | 1.8 ± 0.78 | 1.58 ± 0.19 | 2.56 ± 0.37
GGCAAA | 2.21 ± 1 | 3.13 ± 0.17 | 3.46 ± 0.93
CCTGGG |  | 0.226 ± 0.082 | 
CGAATA | 2.14 ± 0.42 | 1.62 ± 0.12 | 2.57 ± 1
GTTAGG |  |  | 1.48 ± 0.18
TAAACA | 1.85 ± 0.81 | 1.35 ± 0.24 | 1.75 ± 0.52
TGGTAT | 0.93 ± 0.51 |  | 1.49 ± 1
CAGATC | 2.45 ± 1.8 | 1.97 ± 0.33 | 2.55 ± 0.25
